This is one part of the list. At the low end of the ranking the order means little.

This passage reports binding signal results from publication PMC10668032.

The experiment deals with SIX1-Q177R homeodomain (UniProt Q15475). As to the kind of experiment: universal protein binding microarray. As to conditions: Universal all-10-mer PBM (8x60K, AMADID 030236), 300 nM GST-tagged protein, Alexa Fluor 488 anti-GST; buffer, salt, pH and temperature not stated; high values mean tight binding; most listed sequences are background and not binding sites; double strand, one strand shown.
As to AGCCTATG, the binding signal is -0.149 E-score.

For CTCGCGGA, the binding signal was -0.268 E-score.

For the sequence ATGAGACG, the binding signal is -0.128 E-score.

As for ACACACAC, the binding signal was 0.315 E-score.

Turning to TACCGCAA, the binding signal is 0.0111 E-score.

In the case of AAAAGACT, the binding signal is -0.188 E-score.

In the case of CTGACAAG, the binding signal is -0.184 E-score.

In the case of GGGCAACC, the binding signal worked out at 0.0973 E-score.

For GCGGGGCC, the binding signal is -0.0662 E-score.

In the case of GCTGGGCC, the binding signal was -0.142 E-score.

In the case of AGTTGTGA, the binding signal was -0.127 E-score.

With ACAGCGCC, the binding signal was -0.127 E-score.

Regarding CAGGCCCC, the binding signal was -0.104 E-score.

For the sequence AAATGATG, the binding signal is -0.261 E-score.

For the sequence CAGCCACG, the binding signal was -0.189 E-score.

Take GCTGCAAA: the binding signal is -0.136 E-score.

As to ACGAGAAA, the binding signal is -0.0679 E-score.

As for AGCATTGA, the binding signal is -0.183 E-score.

For the sequence ATGCCCGG, the binding signal turned out to be 0.0355 E-score.

For the sequence GCGTGGCA, the binding signal is -0.077 E-score.

Consider ATGTCAAA, for which the binding signal was -0.148 E-score.

In the case of CGTTCTAG, the binding signal is -0.0412 E-score.

Consider AGGACCGC, for which the binding signal is -0.268 E-score.

Consider AGGTGATA, for which the binding signal is 0.129 E-score.

Take AAGACTCA: the binding signal is -0.135 E-score.

CCAGTTAC: the binding signal amounted to 0.0719 E-score.

Regarding TATAAGGA, the binding signal came to 0.0925 E-score.

Consider TTGGGAAA, for which the binding signal is -0.2 E-score.

In the case of CAATTACC, the binding signal is -0.0657 E-score.

In the case of GTGTATGA, the binding signal came to 0.412 E-score.

As for CGTGGTAG, the binding signal was -0.0925 E-score.

For the sequence AACCAGGA, the binding signal is -0.0866 E-score.

In the case of CTGGGGCA, the binding signal was -0.15 E-score.

Take ATAGGAAG: the binding signal stood at 0.0255 E-score.

In the case of GAGGAGGC, the binding signal is -0.202 E-score.

With ACTCTTCG, the binding signal is 0.0294 E-score.

Take CGATCATA: the binding signal is -0.0491 E-score.

As to ACCAGAAC, the binding signal stood at 0.161 E-score.

Consider GCCGACAA, for which the binding signal was -0.0657 E-score.

Turning to CGTACATC, the binding signal was determined as 0.0867 E-score.

In the case of ATCGAGGC, the binding signal is -0.219 E-score.

Consider ACTAGGCC, for which the binding signal is -0.19 E-score.

As to ACACTGCT, the binding signal stood at 0.339 E-score.

ATCCCAAT: the binding signal came to 0.00288 E-score.

Consider CGGCTCTC, for which the binding signal was -0.221 E-score.

For CTGGTTCA, the binding signal came out at 0.0219 E-score.

In the case of CGGTAGTC, the binding signal is -0.114 E-score.

On to GTTTTTTA, for which the binding signal was -0.0452 E-score.

Consider AAAATCTT, for which the binding signal was -0.394 E-score.

Consider GGAGCCTA, for which the binding signal is -0.0476 E-score.

Turning to CTGAGAAA, the binding signal is -0.105 E-score.

Regarding AGGGCCGC, the binding signal was 0.00279 E-score.

As to AGGCTTCA, the binding signal is -0.0936 E-score.

In the case of CTCGGTAC, the binding signal stood at 0.0692 E-score.

Regarding ACGGCAGA, the binding signal was -0.165 E-score.

Regarding ATCAAGAA, the binding signal is -0.229 E-score.

As to ACGATTCG, the binding signal was determined as 0.0235 E-score.

Take ATCACGAG: the binding signal was -0.132 E-score.

Regarding TACACGAA, the binding signal turned out to be 0.377 E-score.

Consider CCAAAAGC, for which the binding signal is -0.229 E-score.

Consider GTGACAAA, for which the binding signal was 0.00911 E-score.

Take CCACAATA: the binding signal was 0.0179 E-score.

As to AAAGCAAC, the binding signal is -0.0904 E-score.

As for CTGTGTTC, the binding signal was found to be 0.175 E-score.

Consider CGCCTACG, for which the binding signal is -0.163 E-score.

In the case of CAACTCCC, the binding signal was determined as 0.0167 E-score.

For CAGCATCA, the binding signal amounted to 0.0495 E-score.

In the case of ATAATTAC, the binding signal came out at 0.00456 E-score.

For the sequence AAATACAG, the binding signal was -0.276 E-score.

As for ACCAAATC, the binding signal was -0.0235 E-score.

Turning to ACTGCAGA, the binding signal was -0.0627 E-score.

For the sequence AATCCTCT, the binding signal is -0.146 E-score.

CGGACTTC: the binding signal was -0.17 E-score.

As for CCAGTAAC, the binding signal was 0.161 E-score.

AGTGGCCA: the binding signal is -0.102 E-score.

For the sequence ATGTACAC, the binding signal stood at 0.435 E-score.

CTCCACTA: the binding signal amounted to 0.103 E-score.

On to ATAAGGAA, for which the binding signal was -0.177 E-score.

As to AGGATTCA, the binding signal was -0.123 E-score.

With ACCACACT, the binding signal was 0.27 E-score.

Consider GAGCTCAA, for which the binding signal was -0.123 E-score.

Consider GAAATGCA, for which the binding signal was -0.0778 E-score.

Regarding AAGACGAT, the binding signal is -0.197 E-score.

On to AGCTCATA, for which the binding signal was -0.234 E-score.

Take GGGCCGGA: the binding signal was -0.221 E-score.

On to GGTACGCA, for which the binding signal came out at 0.0177 E-score.

As for GCGCTGCA, the binding signal is -0.0352 E-score.

In the case of GGAATCTA, the binding signal was -0.0824 E-score.

In the case of CCGCACTC, the binding signal is 0.088 E-score.

Consider AGTCATCG, for which the binding signal was -0.00985 E-score.

As for AGATGGTC, the binding signal was -0.207 E-score.

With CCATTTGC, the binding signal was -0.139 E-score.

As to AGGCTTAT, the binding signal was -0.373 E-score.

For the sequence AGAACCCC, the binding signal is 0.182 E-score.

As for AGAAGCAA, the binding signal is -0.0791 E-score.

Consider GAAGAACA, for which the binding signal is 0.132 E-score.

Regarding AATCGATA, the binding signal worked out at 0.0157 E-score.

As for GAGAGAGA, the binding signal is -0.0401 E-score.

With CTCCTATC, the binding signal was 0.091 E-score.

Regarding GAAATCTC, the binding signal was -0.206 E-score.

For the sequence ACCGACTA, the binding signal was -0.0983 E-score.

Regarding GCAGGACC, the binding signal was -0.0485 E-score.

As to CGCTCGAG, the binding signal was -0.0966 E-score.

As for CGTTGTTA, the binding signal was -0.108 E-score.

With AGTCGGAT, the binding signal is -0.0175 E-score.

On to ACTTTACC, for which the binding signal was 0.0271 E-score.

Regarding GCCAGCTA, the binding signal is -0.0382 E-score.

Regarding CGGCTGTA, the binding signal is -0.101 E-score.

For ATGCCTTG, the binding signal is -0.245 E-score.
